Results on 95 compounds are retold here after PubChem BioAssay AID1159614 (National Center for Advancing Translational Sciences (NCATS), 2016).

The campaign covered roughly 45,000 compounds. About 65 (0.1%) were called active. Calls come from the whole dose curve; as a rule, active = well fitted activation curve with a large enough effect; inconclusive = small, poorly fitted or top-dose-only effect; inactive = no such curve, though single readings can be large or run the other way. The list shows a part of the results.

Chain of UniProt P54803 (P54803 whole entry, looked up): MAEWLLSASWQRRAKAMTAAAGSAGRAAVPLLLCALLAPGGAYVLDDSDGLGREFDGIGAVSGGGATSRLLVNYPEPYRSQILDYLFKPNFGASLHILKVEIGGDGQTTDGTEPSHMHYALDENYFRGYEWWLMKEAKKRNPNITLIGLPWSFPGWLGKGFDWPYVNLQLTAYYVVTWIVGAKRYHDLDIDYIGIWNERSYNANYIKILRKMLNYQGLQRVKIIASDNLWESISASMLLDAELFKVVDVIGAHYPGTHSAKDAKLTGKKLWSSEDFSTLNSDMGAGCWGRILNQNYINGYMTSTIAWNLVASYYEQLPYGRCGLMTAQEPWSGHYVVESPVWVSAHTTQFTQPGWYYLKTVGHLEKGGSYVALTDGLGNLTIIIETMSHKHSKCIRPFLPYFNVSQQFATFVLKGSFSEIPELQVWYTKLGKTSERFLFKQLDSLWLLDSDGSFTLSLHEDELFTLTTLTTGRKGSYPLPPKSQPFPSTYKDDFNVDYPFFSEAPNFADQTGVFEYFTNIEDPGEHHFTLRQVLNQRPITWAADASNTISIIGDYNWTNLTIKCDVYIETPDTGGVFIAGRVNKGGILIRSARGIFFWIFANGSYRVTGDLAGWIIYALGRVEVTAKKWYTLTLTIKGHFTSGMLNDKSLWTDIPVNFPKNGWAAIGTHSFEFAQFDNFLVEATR

In this assay the target is Galactocerebrosidase (Homo sapiens) (UniProt P54803). The assay can be described thus: A Novel Cell-Based Assay to Identify Small Molecules for B -Galactocerebrosidase. Note: 0% is about no effect; nearly all actives have a fitted effect of over 65% in size. The settings on record: 145M-Twi-hGALC-G270D cells (Twitcher mouse brain line with human GALC G270D), HMU-beta-Gal fluorescence, 48 h; series mostly up to 57.5 µM; activation: at the top concentration. Summed up:
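Mutant human GALC (G270D), stably expressed in a Twitcher mouse brain cell line lacking endogenous GALC, is measured in live-treated cells via 6-hexadecanoylamino-4-methylumbelliferyl-β-galactoside hydrolysis (0.1 mM final, pH 5.2) with fluorescent detection.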
With `CCOc1ccccc1Nc1sc(C(=O)c2ccc(Cl)cc2)c(N)c1S(=O)(=O)c1ccccc1`, the “activation” value was inactive: -9.42%. Consider `CC(CNC(=O)C1CCN(C(=O)c2cc3sccc3n2C)CC1)c1ccccc1` (stereo not given), for which the “activation” value is inactive: -7.31%. In the case of `CCOc1ccc(CNCc2c(C(=O)O)n(Cc3ccccc3C)c3cc(OC)ccc23)cc1OC`, the “activation” value is inactive: -20.4%.

For the compound `Cc1ccc(S(=O)(=O)C(CNS(=O)(=O)c2ccc(F)c(C(F)(F)F)c2)c2ccco2)cc1` (stereo not given), the “activation” value is inactive: -8.12%. As for `COc1ccccc1NC(=O)Cn1ccn(-c2cc(C)cc(C)c2)c(=O)c1=O`, the “activation” value was inactive: -16.9%.

Regarding `CCC(C(=O)NC1CCCCC1)n1c(SCc2cccc(F)c2)nc2ccncc21` (stereo not given), the “activation” value is inactive: -46.4%. On to `Cc1cccc(CN2CCN(C(c3ccccc3)c3ccc(Cl)cc3)CC2)c1` (stereo not given), for which the “activation” value was inactive: -17.4%. For the compound `Cc1ccc(Cl)cc1N1CCN(C(=O)CCS(=O)(=O)c2ccc3c(c2)oc(=O)n3C)CC1`, the “activation” value was inactive: -10.4%. Then `CCOc1cccc(NC(=O)C2CC(=O)N(C)C(=Nc3ccc(OC)cc3)S2)c1` (stereo not given), with inactive: -14.2%; and `Cn1nc(C(=O)NCc2ccccc2)c2c1-c1ccccc1S(=O)(=O)C2`, with inactive: -13.7%.

As for `Cc1ccc(Cl)cc1Nc1nn2c(=O)c3ccc(C(=O)NC(C)c4ccccc4)cc3nc2s1` (stereo not given), the “activation” value was inactive: -4.17%.

As to `O=C(C1CCCCC1)N1CC(=O)N2CCCc3ccccc3C2C1` (stereo not given), the “activation” value is inactive: -27.5%. Take `CCOc1ccc(-c2nc3cc(NC(=O)COc4cccc(C)c4)ccc3o2)cc1`: the “activation” value was inactive: -9.63%. For `CN(C(=O)CSc1nc2ccccc2n1Cc1ccccc1C#N)c1ccccc1`, the “activation” value is inactive: -43.2%. Regarding `O=c1c2sc3ccccc3c2n(Cc2ccc(F)cc2Cl)c(=O)n1Cc1ccccc1`, the “activation” value was inactive: 3.08%. For `CCOc1ccccc1CNC(=O)c1oc2ccc3c(c2c1C)C(=O)CC(C)(C)O3`, the “activation” value was inactive: -7.95%. As to `Cc1ccc(S(=O)(=O)C(CNC(=O)C(=O)NCc2ccc(Cl)cc2)c2ccco2)cc1` (stereo not given), the “activation” value is inactive: -8.06%.

For `CCOc1ccc(-n2c(=O)c3c(C)c(C(=O)N(C)C)sc3n(Cc3cc(C)ccc3C)c2=O)cc1`, the “activation” value was inactive: -3.18%. Then `CCOC(=O)c1ccc(-c2ccc(/C=C(\C#N)C(=O)Nc3ccc(C)cc3)o2)cc1`, with inactive: -11.5%. `COc1cc(CN(C(=O)c2ccc(Cl)cc2)C2CCS(=O)(=O)C2)cc(OC)c1OC` (stereo not given): the “activation” value is inactive: -6.31%. With `CCOc1ccc(S(=O)(=O)N(CC(=O)Nc2ccc3c(c2)OCO3)c2ccc(C)cc2)cc1`, the “activation” value is inactive: -12.1%.

Consider `Cc1ccc2oc(-c3ccc(C)c(NC(=O)c4ccc(-c5ccccc5[N+](=O)[O-])o4)c3)nc2c1`, for which the “activation” value is inactive: -14.1%. For the compound `COCC(=O)Nc1c(C(=O)Nc2ccc(C)cc2)oc2ccccc12`, the “activation” value was inactive: -2.3%.

For the compound `CCCCCCCCCCCCCC[N+](C)(C)Cc1ccccc1`, the “activation” value is inactive: -10.8%. With `COC(=O)c1ccc2nc(C)cc(Nc3cccc(Cl)c3C)c2c1`, the “activation” value was inactive: -8.01%. For the compound `Cc1ccc(CNC(=O)CN2C(=O)CCc3cc(S(=O)(=O)N4CCCCC4)ccc32)cc1`, the “activation” value is inactive: 27.8%. Then `CCN(CC)S(=O)(=O)c1ccc(N2CCCCS2(=O)=O)cc1`, with inactive: -15%; and `Cc1ccc2onc(CNC(=O)N3CCN(c4cccc(C(F)(F)F)c4)CC3)c2c1`, with inactive: -20.5%; and `CCn1cc(S(=O)(=O)c2ccc(Cl)cc2)c(=O)c2cc(F)c(N3CCOCC3)cc21`, with inactive: -16.4%. As for `Oc1ccc(-c2nc3ccc(Cl)cn3c2Nc2ccc3c(c2)OCO3)cc1`, the “activation” value was inactive: -17%. On to `Cc1ccc(-n2c(=O)c3c(C)c(C)sc3n(Cc3ccc(F)cc3Cl)c2=O)cc1C`, for which the “activation” value is inactive: -17.2%. Consider `COc1ccc(CCNC(=O)Cc2c(C)c3cc4c(C)coc4cc3oc2=O)cc1OC`, for which the “activation” value is inactive: -6.19%. Then `O=C(NCc1ccc(Cl)cc1)C1CCN(S(=O)(=O)c2ccccc2)CC1`, with inactive: -10.5%; and `COc1ccc(N(C(=O)c2ccccc2)S(=O)(=O)c2ccc3c(c2)n(C)c(=O)n3C)cc1`, with inactive: -15.7%. Take `O=C1CC(=O)Nc2cc(S(=O)(=O)N3CCOc4ccc(Cl)cc43)ccc2N1`: the “activation” value was inactive: -4.74%. `Cc1cc(C)c(NS(=O)(=O)c2ccc(-c3coc(C)n3)cc2)c(C)c1`: the “activation” value was inactive: -6.24%. As for `COc1cc(C(=O)NCc2nc3cccnc3n2Cc2ccc(C)cc2)cc(OC)c1OC`, the “activation” value was inactive: -12.3%. In the case of `CC(=O)c1ccc(NC(=O)Cn2ncc3c4ccccc4n(Cc4ccccc4)c3c2=O)cc1`, the “activation” value was inactive: -8.41%. With `O=C(Cn1c(=O)n2nc(-c3cccc(F)c3)nc2c2ccccc21)N1CCN(c2ccc(F)cc2)CC1`, the “activation” value is inactive: -19%. Then `Cn1c(=O)c2c(ncn2Cc2ccc(Cl)cc2)n(C)c1=O`, with inactive: -5.22%; and `CCN1CCN(C(c2ccccc2Cl)c2c(O)cc(C)n(Cc3ccco3)c2=O)CC1` (stereo not given), with inactive: -19.1%; and `Cc1cccc(Cn2nnc3c(=O)[nH]c(C4CCCN(C(=O)c5ccccc5Cl)C4)nc32)c1` (stereo not given), with inactive: 1.63%. Consider `Cc1ccc(N(C)C(=O)CN2C(=O)CCc3cc(S(=O)(=O)N4CCOCC4)ccc32)cc1`, for which the “activation” value was inactive: 5.12%. For the compound `O=C(c1ccc2c(c1)N(Cc1cccc(Cl)c1)C(=O)c1ccccc1S2=O)N1CCN(c2cccc(C(F)(F)F)c2)CC1` (stereo not given), the “activation” value is inactive: -8.47%.

In the case of `O=C(NC1CC(=O)N(c2ccc(F)cc2)C1)c1ccc2c(c1)OCO2` (stereo not given), the “activation” value was inactive: 3.63%.

In the case of `COc1ccccc1CNC(=O)CCn1cnc2ccccc2c1=O`, the “activation” value is inactive: -15.1%.

Regarding `CCc1ccc(NC(=O)Cn2c(=O)n(-c3cc(OC)c(OC)c(OC)c3)c(=O)c3ccccc32)cc1`, the “activation” value is inactive: -24.1%. On to `CC(NC(=O)c1ccc(F)cc1)c1nc2ccccc2[nH]1` (stereo not given), for which the “activation” value is inactive: -15.2%.

For the compound `COc1ccccc1NC(=O)c1cn(-c2ccccc2)nc1-c1ccccc1`, the “activation” value is inactive: -9.98%. As for `Cc1cc(C(=O)C(=O)Nc2nncs2)c(C)n1-c1ccc(Cl)cc1`, the “activation” value was inactive: -15%. With `Cc1cccc(N2CCN(C(=O)c3noc4c3CCCCC4)CC2)c1C`, the “activation” value is inactive: -14.4%. For `COc1ccc(N2CCN(C(=O)CNS(=O)(=O)c3ccc(Br)s3)CC2)cc1`, the “activation” value was inactive: -2.69%.

For `Cc1ccc(-n2ncc3c(NC4CCCCC4)ncnc32)cc1Cl`, the “activation” value is inactive: -5.56%. Take `Cc1ccc(N2CCN(C(=O)c3cnn(-c4ccc(C)c(C)c4)c3C3CCNCC3)CC2)c(C)c1`: the “activation” value is inactive: -17.6%.

Turning to `COc1ccc(CNC(=O)CCCn2nc(C)c3c(C)n(-c4ccc(C)cc4)nc3c2=O)cc1OC`, the “activation” value is inactive: -0.222%. For the compound `O=C(CNC(=O)c1ccc(F)cc1)OCc1cc(=O)n2nc(C3CCCCC3)sc2n1`, the “activation” value was inactive: -12.1%. Regarding `COc1ccc(OC)c(NC(=O)CN2CCCN(Cc3ccccc3Cl)S2(=O)=O)c1`, the “activation” value was inactive: -9.81%. For `CCOc1cc(CNC(=O)c2ccc3c(c2)N(C)C(=O)C2CCCCN32)ccc1OC` (stereo not given), the “activation” value is inactive: -20.6%. With `CCOc1ccccc1C(=O)NCc1nc2cccnc2n1Cc1ccc(C)cc1`, the “activation” value is inactive: 3.04%. For the compound `O=C(CN1C(=O)COc2ccc(S(=O)(=O)N3CCCCCC3)cc21)N1CCN(c2ccccc2F)CC1`, the “activation” value is inactive: -9.03%. Regarding `CCOc1ccc(CNC(=O)CCS(=O)(=O)c2cc3c4c(c2)CCN4C(=O)CC3)cc1OC`, the “activation” value was inactive: -7.86%.

On to `O=C(CSc1nccn1Cc1ccco1)Nc1cc(C(F)(F)F)ccc1Cl`, for which the “activation” value is inactive: -19.1%. With `CCN(c1ccccc1)c1nnc(NC(=O)Nc2ccc(Br)c(C)c2)s1`, the “activation” value was inactive: -7.58%. In the case of `O=C(c1ccc2c(Cl)c3c(nc2c1)CCCC3)N1CCN(c2cccc(C(F)(F)F)c2)CC1`, the “activation” value was inactive: 1.01%. For the compound `COc1cc(OC)c(NC(=O)C2CCN(S(=O)(=O)c3ccc4c(c3)oc(=O)n4C)CC2)cc1Cl`, the “activation” value was inactive: -10.2%.

Regarding `COc1ccc2c(CNCCc3cccs3)c(C(=O)O)n(Cc3cccc(F)c3)c2c1`, the “activation” value was inactive: -12.3%. For the compound `Cc1ccc(CNC(=O)CN2CCN(Cc3ccc(F)cc3Cl)C2=O)cc1`, the “activation” value is inactive: -10.3%. Turning to `COc1ccc2nc(NC(=O)c3cc(=O)c4cc(C)cc(C)c4o3)sc2c1`, the “activation” value was inactive: -18.6%. With `CCc1ccc(S(=O)(=O)c2cn(CC)c3cc(N4CCCCC4)c(F)cc3c2=O)cc1`, the “activation” value was inactive: -6.67%. As to `COc1ccc(OC)c(NC(=O)CCNS(=O)(=O)c2ccc3c(c2)oc(=O)n3C)c1`, the “activation” value is inactive: -5.65%. Consider `CCc1ccc(Nc2sc(C(=O)c3ccc(F)cc3)c(N)c2S(=O)(=O)c2ccccc2)cc1`, for which the “activation” value was inactive: -7.17%. Consider `Nc1c(C(=O)NCc2ccc(Cl)cc2)sc2nc(-c3ccc(F)cc3)ccc12`, for which the “activation” value was inactive: -2.23%. Regarding `COc1ccc(C(=O)N2CCN(CC(=O)N3CCOCC3)CC2)cc1`, the “activation” value is inactive: -9.75%.

As for `CC1=C(C(=O)OCc2ccc(C)cc2)C(c2cccc(F)c2F)CC(=O)N1` (stereo not given), the “activation” value is inactive: -16.5%. Then `COc1ccc(-c2cc(C(F)(F)F)n3nc(C(=O)Nc4cc(C)ccc4C)cc3n2)cc1`, with inactive: -24.1%; and `Cc1ccc2c(c1)c1c3n2CCN(C(=O)c2ccc(C(F)(F)F)cc2)C3CCC1` (stereo not given), with inactive: -10.1%. Turning to `COc1ccc(OCC(=O)Nc2ccc3nn(-c4ccc(OC)cc4)nc3c2)cc1`, the “activation” value was inactive: -23%.

As to `CCNC(=O)c1cc2n(n1)CCCN(Cc1ccc(C)cc1)C2=O`, the “activation” value is inactive: 2.77%. As for `COc1ccc(CCNC(=O)c2cc3c(=O)oc4ccc(C)cc4c3s2)cc1OC`, the “activation” value was inactive: -4%. Under `Cc1nn(C(=O)c2cccc(F)c2)c(C)c1S(=O)(=O)N1CCOCC1` stands inactive: -12.9%; under `O=C(C1CCN(c2ncnc3c2nc2n3CCCCC2)CC1)N1CCN(c2ccc(Cl)cc2)CC1`, inactive: -6.85%. Take `CCOC(=O)c1sc2ccccc2c1S(=O)(=O)N1CCN(c2cc(C)ccc2C)CC1`: the “activation” value is inactive: -5.1%. As to `O=C1Cc2cc(Cl)ccc2N1`, the “activation” value was inactive: -10.9%. Then `Cc1ccccc1NC(=O)Cn1nnc(C(=O)NCCc2ccccc2)c1N`, with inactive: -6.89%; and `O=C(NC1CCCCC1)c1ccc(CSc2nc3ccncc3n2Cc2ccc(F)cc2)cc1`, with inactive: -16.8%; and `CCc1nn2c(=O)c(S(=O)(=O)Nc3ccc(Br)cc3F)c(C)nc2s1`, with inactive: -21.8%.

`Cc1ccc(NC(=O)c2c(NC(=O)c3ccccc3Cl)sc3c2CCC3)cc1`: the “activation” value was inactive: -13.3%. With `COc1ccccc1CNc1nc2c(S(=O)(=O)c3ccccc3)nnn2c2ccc(Cl)cc12`, the “activation” value is inactive: 1.38%.

As to `COc1ccc(Nc2cc(C(=O)NC3CCCC3)c3ccccc3n2)cc1`, the “activation” value was inactive: -15.1%. For the compound `COc1ccc(C2C=C(c3ccc(Br)cc3)Nc3nnnn32)c(OC)c1` (stereo not given), the “activation” value was inactive: -24.8%. Turning to `CS(=O)(=O)N1CCc2cc(C(=O)N3CCN(c4ccccc4F)CC3)ccc21`, the “activation” value is inactive: -14.1%.

`O=C(CCSCc1ccc(Cl)cc1)NCc1ccc(F)cc1Cl`: the “activation” value was inactive: -5.95%. For the compound `CN1CCN(C(=O)Cn2ncc3c4ccccc4n(Cc4ccc(Cl)cc4)c3c2=O)CC1`, the “activation” value was inactive: -7.43%. For the compound `Cc1cc(C)c(NC(=O)c2c(C)nn(-c3ccc(F)cc3)c2-n2cccc2)c(C)c1`, the “activation” value was inactive: -25.3%. Turning to `O=C(CSc1nccn1Cc1ccc(F)cc1)NCc1ccc(F)cc1`, the “activation” value was inactive: -15.1%.
